In all, about 2,700 sequences were measured (“arbitrary fluorescence units”: median about 4,100, highest 2% from about 54,000 on). This is one part of the list.
Biological target: T1, ETS1 (UniProt P14921)
T1 sequence: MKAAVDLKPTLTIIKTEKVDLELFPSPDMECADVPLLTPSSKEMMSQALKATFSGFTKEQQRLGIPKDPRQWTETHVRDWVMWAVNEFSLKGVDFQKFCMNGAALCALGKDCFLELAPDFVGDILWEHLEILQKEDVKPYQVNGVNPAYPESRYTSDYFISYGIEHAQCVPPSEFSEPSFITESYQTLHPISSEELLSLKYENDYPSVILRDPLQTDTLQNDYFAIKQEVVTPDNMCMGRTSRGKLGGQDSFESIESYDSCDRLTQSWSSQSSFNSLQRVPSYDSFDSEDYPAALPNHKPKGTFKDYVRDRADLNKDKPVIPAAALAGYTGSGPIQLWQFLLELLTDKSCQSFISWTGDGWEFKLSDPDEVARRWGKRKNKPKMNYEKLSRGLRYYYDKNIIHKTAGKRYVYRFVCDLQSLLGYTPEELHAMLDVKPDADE
Assay: ETS1 binding intensity (PBM fluorescence) (arbitrary fluorescence units); higher = stronger binding
Settings: ETS1 concentration 10 nM
Protocol: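 gcPBM on wild-type 36-bp genomic probes with two neighbouring ETS1 sites (4-24 bp apart). Recombinant human ETS1 (10 nM) was detected with anti-ETS1 antibody fluorescence. Values are medians over 3 replicate spots. The probes sit in constant array flanks that are not printed.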

Sequence	ETS1 binding intensity
CTCGAGTTTCCTGGGCTTTGATCACCGGAAGTACAT	8990
TTCCTGAGCAGGAAGATGAAACAGGAAATGCAACAA	3980
CCGCAGTTTCCGCCGCGATAGGGGCTTCCCGTGCGT	13200
TCTGACTTCCTCTGGGGAGCCAGATGGGGAAGTGTG	13300
ACATAGTTCCGGCTCGCTGAGCTCGGCGGAAGGAGA	6970
CTCCAGAGCACTTCCTGGCCCAGGAAAGCAGCAAGC	12500
GCCTCTCGGAAGCAATCTTTCGGGACGGAAGTTAAG	523
AGAAATCAGGAAATAGCTGATGAAGGAAGTGGTTTT	2120
TCCGGCGCACTTCCGTACCCCTCTTCCGGCGCACTC	16800
GGAGAAGAGGAAGCTCCGCCTCGCTTCCCGGTATTG	699
ATTTACCGGATTACTAGCAAATTCAGGAAATGAGCC	469
CGTCCCCAGGTTTCCGGCAGGCTTCCGCACTCACAG	8590
AACACGGATGTTTGCATTCCACAGGGATTCCTGTTG	397
GCACCAACATCCTGTCTGCCCTGTTTCCTACTGAGG	35600
GTGATGCATCCTGCCATGCAGGGCACATCCTGAAAG	9450
CATACTGCAGGAAGGAGCAACATTTCCTGCATTTGT	1950
GCAGAGCGGAAGCGGCGGCGGGAGCTTCCGGGAGGG	12400
AGACCCGGATGTAGGCAAAAACTACATTTCCCAGAA	8580
AGATGGGAAGTAGGAGAAAATGCTCTCTTCCTGTTT	1200
ATCTGCAGGATGTAAGAAGAATAGAAGGAAGCTGGG	1930
AACCAACAACTTACTTCCTTCCGGGTTTGGTGCAGA	5690
TTGGGCTTCCGGAGCCAAAAGGCCCCGGAAGTGGTC	17500
CCCTCACTTCCTGCCACGCAGCCTGCTTCCTAGCCG	29300
CACAGAGAGGAAACGGAGGTGCCCGGAATGTTGATA	523
GGGCCGCGGAACCGGACCGGCCGCGTTTCCGCAGCC	262

Sequence	ETS1 binding intensity
GAGCTCCCGGAAGTTGCCGGACCCGGAACGCAGGCG	11000
AAATTGAACAGCGGAAGTACTTCCTTGGTCGGACCC	13900
AACCCACAGGAAGCTCACATGCTATTTCCTAGACAC	2020
GTCGGGAGGGGAAGTGAGGCGGTTTCCTCGGCGCCT	755
TTTACTGACAGGAAGCCATCAAGGAAATAGTTGCCT	2000
AAGAAGCGAGACTTCCTCCCTTCCTGCTGCCTGGCT	6600
GCGGCTTGGGCCTTCCGGCTTTCCGTCCGCCGCGGC	7060
CGGGGTTGCCTGTTTCCTCTTCCCATTATTCCGGCC	1440
AGGTGGGCTTCCTGCTTCTCCTCTCATCCTGGGTCC	9680
TATTGCATTTAGGGAAGTGTTTCCGTCTTGGTTTGC	1190
GATCGTGCTTCCGCCCCACGCCGAGGAAACGCCTGC	18500
CATACTACAGCGGAAAAAAAACATCCTTTCTCTAGG	309
ACTACCGTTGGTTTCCGCAACTTCCTGGATTATCCT	7390
TCCTCCTCACTTCCGCCGGAGCGGAAACGGTGAGGA	31200
TGCTTCTGGTGGTTCCGGCGCTTCCTCGGAGCGCGC	1600
AGACACAGGAAGCTCCAGTGCAGAGAGGAAGTGCTA	4410
TTTTGACATTTCCTGCGGACTATTTCCTGTCACTAC	21500
GCTTGGACCGGAAGGTCTGCAGGAGGAAGGACTGCC	7460
AGCAGTCACTTCCCTGTCTCTGGGGGAAGTTCAGGG	2340
GGCCTTTGCGCCCGGAACCGGAAGCGATCGCTCGCC	7280
GCACCCGGAAGCCGCTTGCGGGCTCCCGGAAGCGGC	8720
TGAGGTGGTATCCTGTGCATTGTAGGATGTTTAGCA	2920
GACTTCCCCACTTCCGTCGGGTTCCACCCATGCGCT	11700
CGGCTTCCGGCTATGGGTACCGCGGGCCGGAAGTGT	32200
CGGGAGCAGCGGAAGTCATTAACATCCGCGGTTGTG	12500

Sequence	ETS1 binding intensity
CCTGACCCGGAACTCGGAGGCGTGCTTCCTCCACCC	533
CTCCGCCTTCCGGCTCAGAATTGTGAGGAAACCCGC	14200
AGTAGAGAGGCCGGAAGAACCATCCGCAGAGGGTCA	3290
GTCGGCTTCCTGGGGAGCAGGGCTCATTTCCTAAAT	6060
CCGCGCTTCCTCTGCTTTCGGTTTCGCTTCCGCCTC	9270
CAACATCAAGCCGGAAGCCCAGGAAGGGGCGTTTTG	4180
TTGTCACAGTGGTTCCGCCTTTCCGGTCCCACCCAC	4730
TTCTACTTCCGCTATCAGGAGATCTACTTCCGGGCC	28100
GGGAGGAAGGCAGCCGTCCGCTGCCCCGGGAAGCCG	182
TGGTAGCTGCATTTCCCCAGAGGAAGTGGTGTGTGC	451
CCTCCACATCCTGGGCTTAACTGATCTTCCTGCCTC	3960
AAAGCGCATTGCGGATGGCAATTCCGGTGCGTCATT	732
TGAACAGGAAACCTGAAAGGACTGGCAGGAAGTCGG	3470
TTGGACTTCCCCTTTCTCAAAATACAGGAAGTCTGT	5790
TGCACCACCATCCGCCTGCTCACATCCTGCCTGCCT	3530
GAGAACTTCCGGCTGCAGTACAACCATTTCCGGGCT	68300
ATCAATGTTGAGCGGAAACTTCCGTCAGGCTTTGAA	2270
TCAGCATAATTAGGAAACTGCTTCCTCTGGACGTGC	236
AGCATTCCACTTCCTGTCTTGATTCCTGTATTAGAG	62700
TGTGGCGGTTTCGGAAGCTCCTTCCTGGGGCTCCAA	478
CTCTTTGCTTTCCGGTATGTGGCAGGAACCTTGGAC	14500
TCCGCTCGGGCGGAACTACGTTTCCCGGCATGCACT	458
AGGCACTTCCGTTGAGCATCTAGACGTTTCCTTGGC	35300
AGGTAACTGGGGAGGAAGAGGATGTTACGAAAAGCG	374
GGCGCCTTCCGCAGAGGGACTGCGGCTTCCTGCGCA	3990

Sequence	ETS1 binding intensity
GTGGAGGATGTCGGAACGTATCTAGATGGGAAGTGG	381
GCACCGGAAGTGACCGCCTCGCGGCTGCTTCCTCTC	57700
GTTTTCACTTCCTTTTCAGAGCTGTATCCGGGTCGC	12900
ACACTTCCTGCAGTAGCTTTCATCACATTTCCTCTG	30400
TTACCGGAAGAAGCGAAGAGCAGCGATTTCCTTCCA	7870
CTGGGGGTCCGGATGCTTTGCGTTTCCCAGCAGTTG	1230
CGTAGGCTTTCCGCAATATCAGTGGGGAAGTTAGAC	277
GCCGCGTCTCCTTCCGCCGCCCGGAAATCAGGGCCC	7820
TTGTTCTTTTAAGGAAATGTCTTCCTGGCCGCCTGA	256
CAACCATAGTACAGGAAGCAGGAAGCTCACTGAAGC	2990
GCGCGAGGGCCGCTTCCGCTTCCGTCAGGGGAGGCC	20800
GCAGAGCATCCGCGCCCTGCGCGACTTCCTGCGCAA	6040
ATGGTCAAGGGAAGTACTACCATTTCCTGTGGGTTA	4990
GCAGTGACGGGAAACCAAGAGCAGGAAAAGCAACCC	389
CACTGGAGCTGCTTCCTAGTTTCCATTTCCGGGCCG	3840
GACCATTTCCTGATACTCATGACCACTTCCTCTCAT	28400
CTCCGGGCAGGAAAGGGCGGTAGCTTCCTCCAGCAG	784
CTGGGGACACAGGAAGTATAGTTTCCTGCCTTCAGA	12500
GGGTCGGAAACAGCCGCTCCGCGCCGCTTCCGCTGA	1230
GGTTGGGGTGGCTTCCCGGAGGAAGTGATAACTCAG	943
GGTTCAGCCGGGAAATGTGTTCAGGATGTGCCATGG	276
TGCGCCGGAAAGCGCGCCGCTCTGTTTTCCTGGCAA	431
ACTGCCTTCCTGAATTACTAGGTCCAGGAAGTGTGG	1130
CTCCCCCGGAAGTGAAAGTGCGGGGATCCGCCGGCC	11400
TGAACCAATGAGGAAGCCAAACTTCCTCTGGCCTGG	773

Sequence	ETS1 binding intensity
GTCAAGGAGGAAACCTTCATGCACGGAAGTTTCTCG	219
AAAGGCGGCGGAAGGTGATCGAATTCCGGTGATGCG	895
CAGCTGGTGCCATCCGCCCACGGGAAGTGTTTGGTT	715
GACTCATGCCACTTCCTGCACTTCCTCCTGACCTCC	13500
GTCCTGCCTCCCGGAAGTGATTTCCTCTGGGTTACG	14300
TGGCCCGGAACACGCTGTCCTCGCGCTTCCGCCGGG	813
TGATTTCCGCTTTCTCCCCAGTGATTGCTTCCTTCA	68300
GACCACAGGAAATGCCAAAAACCACTTCCCATGGTT	14400
TGGAAAGGAAATAAATTCCAAAGGCAGGAAGTGACC	2640
GATATTTCCTGGTGGTCGCTGTAATACGGAAAACTT	14000
CGCCTTTCACTTTCCGCCCTCTTTCCGCCCCCTTCT	1750
TGGGCTGGGCTTCCTCTTTTCACTTCCTTGGGGTAG	2310
CAGGATGAGGAAACGTGGTTAACAGGAAGAAGCCCT	554
TAGTCAGGAAACCACAGATGCTGGAGAGGATGTGGA	275
ATCACATCCTGAAGGCTTGTGCTTGGCAGGAAGCAA	7540
CTTTTCATCAACCCGGAAGGAAGCAGCCGCCGGTCG	736
GGTTGCCAGCAGGAAGGCAGGTTTCCTCACACCAAG	294
GGGCAGGAAAGCCCATTCCCTACAGCCCGGAACTCC	204
ACCACTCACTCCAGGAAAAGGAAGTGGCAGGTGTGA	654
CGCCTTTTCCGCGTCACTCCGTAACCGGAAGTGAAT	14300
GAGGTCTCAGGAAACTAACCTTGTTTCCTGGTGCTG	443
CCCATGGGCACATCCCCTCTGGGGAAGTGAGGGAGC	405
CTTTGAAAGGAAGCTGCTTTAGCATATCCTTTCTGT	572
TTTCTGGCTCTGCTTCCTGCTTCCTCTGGATGGACG	6620
TCAAAGGGAAATGGTTTTAGTGGTTCAGGAAATGAA	345
